Measurements published in article PMC4336329 (PLoS ONE, 2015).
Among all 310,000 compounds or so, about 2,200 (0.71%) showed an effect of 50% or more. Effects have a minus sign here. This is one part of the list.

Molecular target: human ether-à-go-go-related gene (hERG) potassium channel (human, UniProt Q12809)
Experiment: primary screen, population patch clamp on CHO cells stably expressing hERG

human ether-à-go-go-related gene (hERG) potassium channel, sequence (Q12809 whole entry, looked up): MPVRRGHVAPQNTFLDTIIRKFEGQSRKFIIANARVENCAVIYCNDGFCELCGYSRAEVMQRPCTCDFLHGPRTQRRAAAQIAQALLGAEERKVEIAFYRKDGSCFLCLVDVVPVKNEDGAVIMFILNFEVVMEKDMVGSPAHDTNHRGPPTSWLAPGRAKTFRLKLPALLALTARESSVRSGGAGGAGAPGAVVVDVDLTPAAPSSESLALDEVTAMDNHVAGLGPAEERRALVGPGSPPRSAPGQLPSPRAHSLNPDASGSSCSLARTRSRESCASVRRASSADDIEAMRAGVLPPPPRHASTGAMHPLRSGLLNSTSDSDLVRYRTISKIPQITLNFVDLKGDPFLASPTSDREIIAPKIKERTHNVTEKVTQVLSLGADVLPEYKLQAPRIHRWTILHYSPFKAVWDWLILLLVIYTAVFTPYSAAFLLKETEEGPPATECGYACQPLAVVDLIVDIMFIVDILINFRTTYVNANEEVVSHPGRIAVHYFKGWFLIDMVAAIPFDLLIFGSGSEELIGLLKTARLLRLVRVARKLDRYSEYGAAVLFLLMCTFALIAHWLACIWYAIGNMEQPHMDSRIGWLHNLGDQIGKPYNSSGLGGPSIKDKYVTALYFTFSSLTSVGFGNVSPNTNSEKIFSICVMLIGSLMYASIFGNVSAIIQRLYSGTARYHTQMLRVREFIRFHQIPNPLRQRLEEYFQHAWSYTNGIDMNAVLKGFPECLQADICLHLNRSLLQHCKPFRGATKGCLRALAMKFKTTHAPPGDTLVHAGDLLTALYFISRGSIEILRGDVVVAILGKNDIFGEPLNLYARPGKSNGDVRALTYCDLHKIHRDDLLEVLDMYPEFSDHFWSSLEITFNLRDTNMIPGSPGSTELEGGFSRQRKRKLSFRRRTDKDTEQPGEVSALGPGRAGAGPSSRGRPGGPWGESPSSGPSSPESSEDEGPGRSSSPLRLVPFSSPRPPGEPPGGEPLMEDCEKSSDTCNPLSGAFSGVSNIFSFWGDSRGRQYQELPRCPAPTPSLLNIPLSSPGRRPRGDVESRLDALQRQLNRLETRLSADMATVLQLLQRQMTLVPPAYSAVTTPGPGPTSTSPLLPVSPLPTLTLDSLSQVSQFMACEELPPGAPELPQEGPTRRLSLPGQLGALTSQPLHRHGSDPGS

Going from CC(C)c1ccc(NC2CCCN(C(=O)CCN3Cc4ccccc4C3=O)C2)cc1 (stereo not shown) to CCN1CCN(C(=O)CCn2c(=O)c3cccn3c3cccnc32)CC1, the “hERG current change (%, negative = inhibition) at 1uM” value rises from -0.383% to 7.54%.

Going from CCc1cccc2c(C(=O)C(NCCOC)c3ccccc3)c[nH]c12 (stereo not shown) to CCOc1ccccc1C1C(C(=O)Nc2ccccc2OC)=C(C)Nc2nnnn21 (stereo not shown), the “hERG current change (%, negative = inhibition) at 1uM” value falls from 10.7% to 7.72%.

Compared with COc1c(Br)cc([N+](=O)[O-])c(OC)c1C(=O)NC(=O)Nc1nc(C)cc(C)n1, COc1ccc(C(=O)Nc2ccc(S(=O)(=O)Nc3cc(C)nc(C)n3)cc2)cc1 is higher in “hERG current change (%, negative = inhibition) at 1uM” value: 5.64% for the first, 17.4% for the second.

Going from C#CCOCCOCCOCCNc1nc(N2CCN(C(=O)[C@H](CCC(=O)O)n3cc(C(N)Cc4ccc(O)cc4)nn3)CC2)nc(N2CCN(C(=O)[C@H](CCC(=O)O)n3cc(C(N)CC(C)C)nn3)CC2)n1.Cl (stereo partly shown) to O=C(Cc1ccc(-n2c(=O)[nH]c3ccccc3c2=O)cc1)N1CCN(c2ccccc2)CC1, the “hERG current change (%, negative = inhibition) at 1uM” value falls from 8.94% to 8.5%.

Going from CCN(C(=O)C(C)N1C(=O)/C(=C/c2ccco2)SC1=S)C1CCS(=O)(=O)C1 (stereo not shown) to CN1CCC(N(C)C(=O)c2cc(=O)c3ccccc3o2)CC1, the “hERG current change (%, negative = inhibition) at 1uM” value rises from -1.05% to 7.98%.

Going from O=C(NCCCSc1ccccc1)c1cnc(Cl)c(Cl)c1 to Cc1cc(C)nc(NC(=O)CSc2nn(-c3ccccc3)c(=S)s2)n1, the “hERG current change (%, negative = inhibition) at 1uM” value rises from 5.05% to 10%.

First: COc1cc(-c2nnc(CSc3nnc4nc(C)cc(C)n34)o2)cc(OC)c1OC
Second: COc1cccc(Nc2nc3ccccc3nc2-n2nc(C)cc2C)c1
The “hERG current change (%, negative = inhibition) at 1uM” value of the first is lower: 12.6% for the first, 17.8% for the second.

First: O=C1NC(=O)/C(=C/c2ccc(OS(=O)(=O)c3ccc(F)cc3F)cc2)N1
Second: COc1ccc(N(C(C)=O)S(=O)(=O)c2cccc3cccnc23)cc1
The “hERG current change (%, negative = inhibition) at 1uM” value of the first is higher: 13.2% for the first, 8.13% for the second.

First: CN(C)c1c(N)[nH]c2c(c1=O)c(=O)n(C)c(=O)n2C
Second: Cn1c(=O)n(C)c2cc(NS(C)(=O)=O)ccc21
The “hERG current change (%, negative = inhibition) at 1uM” value of the first is lower: -0.391% for the first, 8.26% for the second.

First: CC(=O)Nc1ccc(Nc2ncnc3c2cnn3-c2cccc(C)c2)cc1
Second: CCn1nc(NC(=O)c2ccncc2)c2cc3cc(C)ccc3nc21
The “hERG current change (%, negative = inhibition) at 1uM” value of the first is lower: 9.23% for the first, 12.8% for the second.

Compared with CCOC(=O)CNC(=O)CSc1nc2nc(C)c(Br)cc2[nH]1, CC(=O)C1=C(C)NC(SCC(N)=O)=C(C#N)C1c1cccs1 (stereo not shown) is lower in “hERG current change (%, negative = inhibition) at 1uM” value: 6.5% for the first, 1.99% for the second.

Going from CC(c1ccon1)N(C)C(=O)c1ccc(OC2CCN(C(=O)C3CC3)CC2)cc1 (stereo not shown) to COc1ccc(C2SCC(C(=O)O)N2C(C)=O)cc1 (stereo not shown), the “hERG current change (%, negative = inhibition) at 1uM” value rises from 7.78% to 13.9%.

First: CCOc1ccccc1N1CCN(C(=O)c2c(C)noc2C)CC1
Second: CS(=O)(=O)N(CC(=O)N1CCN(C(c2ccccc2)c2ccccc2)CC1)C1CCCCC1
The “hERG current change (%, negative = inhibition) at 1uM” value of the first is higher: 8.11% for the first, 4.66% for the second.

Compared with O=C(CCS(=O)(=O)c1ccc(Br)cc1)NCc1cccs1, O=C1CC(CC(=O)N/N=C/c2ccccc2[N+](=O)[O-])=NN1 is higher in “hERG current change (%, negative = inhibition) at 1uM” value: 7.69% for the first, 16.6% for the second.

Compared with COC(=O)C1=C(C(=O)OC)[C@@H]2N(C)c3ccc(OC)cc3[C@@]23C[C@@H](C(=O)OC)N=C3N1, CCCCN(C(=O)c1ccco1)c1c(N)n(CCC)c(=O)[nH]c1=O is higher in “hERG current change (%, negative = inhibition) at 1uM” value: -5.71% for the first, 3.28% for the second.

First: O=C1NC(c2ccccc2)=NC1(Nc1ccccn1)C(F)(F)F (stereo not shown)
Second: O=c1[nH]c(=S)n(-c2ccccc2)c(O)c1C=NCc1ccccn1
The “hERG current change (%, negative = inhibition) at 1uM” value of the first is lower: -1.83% for the first, 2.46% for the second.

Going from Cc1ccc(OCC(=O)NNc2c3ccccc3nc3ccccc23)cc1 to COc1ccc(/C=N/N(C(C)=O)c2nc(-c3ccc(C)cc3)cs2)cc1, the “hERG current change (%, negative = inhibition) at 1uM” value falls from 14.2% to 10%.

Going from O=C1CC(c2ccc3c(c2)OCO3)c2cc3c(cc2N1)OCCO3 (stereo not shown) to Cc1ccc2c(c1)C(=O)CC(c1ccc3c(c1)OCCO3)O2 (stereo not shown), the “hERG current change (%, negative = inhibition) at 1uM” value falls from 6.93% to 6.86%.

Going from O=c1c2cn[nH]c2[nH]c(=S)n1-c1cccc(Cl)c1 to O=c1c2ccccc2oc2ccc(C#CC3(O)CCCCC3)cc12, the “hERG current change (%, negative = inhibition) at 1uM” value falls from 11.5% to 2.36%.

First: CC1CCCC(C)N1C(=O)Cc1ccccc1 (stereo not shown)
Second: Cc1ccc(-c2noc(CN(C)C(=O)c3ccc(Br)o3)n2)cc1
The “hERG current change (%, negative = inhibition) at 1uM” value of the first is higher: 5.01% for the first, 1.11% for the second.

Going from O=C(CN1CCN(CN2C(=O)NC3(CCCCCC3)C2=O)CC1)Nc1ccc(F)cc1 to CCOC(=O)/C=C1\CC(=O)Nc2nonc2N1, the “hERG current change (%, negative = inhibition) at 1uM” value falls from 11.8% to 0.0361%.

With CC1(C)CC(=O)C(N=Nc2cc(Cl)c(Cl)c(Cl)c2)=C(O)C1 the “hERG current change (%, negative = inhibition) at 1uM” value was 12.8%.
